87 compounds from paper PMC13083723 (Patterns, 2026) can be followed below.

The campaign covered roughly 5,400 compounds. About 190 (3.5%) showed an effect of 50% or more. The list shows a part of the results. Positions of bridges follow the written chain, without caps; N, C: chain ends. Non-standard residues stand in square brackets, D forms with d. Residues, ends and D or L forms follow the SMILES beside them. ξ: configuration not given here. dTrp(2-Me) = Cc1[nH]c2ccccc2c1C[C@@H](N)C(=O)O; ξThr(3R) = C[C@@H](O)C(N)C(=O)O; Orn = NCCC[C@H](N)C(=O)O; Mpa = O=C(O)CCS

The assay deals with Vero-E6. Nature of the assay: primary screen, phospholipidosis by LipidTOX staining; higher = more effect of the substance. The settings on record: 10 µM. The essentials:
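Single-concentration screen at 10 μM, with DMSO 0.1 v/v % and amiodarone 10 μM as controls. Read-out is LipidTOX Red phospholipid staining, which tolerates aldehyde fixation, in Vero-E6 cells.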
With `C=CC(=O)Nc1cccc(Nc2nc(Nc3ccc(OCCOC)cc3)ncc2F)c1`, the result_ITMP came to 32.3%.
Then `CCCOc1ccc(S(=O)(=O)N2CCN(CCO)CC2)cc1-c1nc2c(CCC)cn(CC)c2c(=O)[nH]1`, with 10.7%; and `Cc1c(-c2ccccc2F)[nH]c(N)c1C#N`, with -4.53%.
Then `CCC(=O)Nc1cccc(Oc2nc(Nc3ccc(N4CCN(C)CC4)cc3OC)ncc2Cl)c1`, with -5.58%; and `CCCCc1ccc(NS(=O)(=O)c2ccc(F)cc2)cc1`, with -5.44%; and `Cn1ccc2cc3c(cc21)CCN3C(=O)Nc1cccnc1`, with -2.4%.
Then `O=C(Nc1ccc(Br)cc1)c1cc(Br)cc(Br)c1O`, with -3.53%; and `C[C@H](CCC(=O)O)[C@H]1CCC2C3C(CC[C@@]21C)[C@@]1(C)CC[C@@H](O)C[C@H]1C[C@@H]3O` (stereo partly drawn), with -2.91%; and `CN1CCN(c2nc3ccccc3nc2Cl)CC1`, with 5.5%.
As for `O=C([O-])[C@H](O)[C@@H](O)[C@H](O)[C@H](O)C(O)CO` (stereo partly drawn), the result_ITMP is -2.51%.
As to `CC(C)c1c(NC(=O)Nc2ccc(Cl)cc2)c(=O)n(-c2ccccc2)n1C`, the result_ITMP was 0.5%.
To `CCC(=O)O[C@]1(C(=O)CO)CC[C@H]2[C@@H]3CCC4=CC(=O)CC[C@]4(C)[C@H]3CC[C@@]21C` belongs -0.65%; to `O=C(O)Cc1cccc2c(=O)cc(-c3ccccc3)oc12`, -2.66%; to `O=[N+]([O-])c1c(Nc2cc(F)cc(Cl)c2)ccc2nonc12`, -6.04%.
For the compound `CCCSc1ccc2nc(NC(=O)OC)[nH]c2c1`, the result_ITMP amounted to 6.15%.
To `Clc1cccc2c1CN(C1=NCCN1)C2` belongs -1.86%; to `c1ccc(-c2ccc(CNc3nc(-c4ccccn4)nnc3-c3ccccc3)cc2)cc1`, -2.74%.
As for `CO/N=C(\C(=O)N[C@@H]1C(=O)N2C(C(=O)OC(C)OC(C)=O)=C(COC(N)=O)CS[C@H]12)c1ccco1` (stereo partly drawn), the result_ITMP is recorded as -4.17%.
Then `CCNC1=Nc2ccc(Cl)cc2C(C)(c2ccccc2)O1` (stereo not drawn), with -2.56%; and `NNC(=O)CSc1nc2scc(-c3ccccc3)c2c(=O)n1-c1ccccc1`, with -5.94%; and `CC[C@@H](C)C[C@@H](C)CCCCCCCCC(=O)N[C@H]1C[C@@H](O)[C@@H](NCCN)NC(=O)[C@@H]2[C@@H](O)CCN2C(=O)[C@H]([C@H](O)CCN)NC(=O)[C@H]([C@H](O)[C@@H](O)c2ccc(O)cc2)NC(=O)[C@@H]2C[C@@H](O)CN2C(=O)[C@H]([C@@H](C)O)NC1=O`, with -8.5%.
Consider `COc1ccccc1OCC(O)COC(N)=O` (stereo not drawn), for which the result_ITMP was -2.74%.
Take `Cc1[nH]c2ccccc2c1C[C@@H](NC(=O)[C@@H](N)Cc1cnc[nH]1)C(=O)N[C@@H](C)C(=O)N[C@@H](Cc1c[nH]c2ccccc12)C(=O)N[C@H](Cc1ccccc1)C(=O)N[C@@H](CCCCN)C(N)=O` (H-H[dTrp(2-Me)]AW[dF]K-NH2): the result_ITMP is listed as 1.15%.
For `COc1cc(N2CCC(N3CCN(C)CC3)CC2)ccc1Nc1ncc(Cl)c(Nc2ccccc2P(C)(C)=O)n1`, the result_ITMP is given as -0.55%.
Then `CN(C)C(=O)Oc1ccc[n+](C)c1`, with -9.05%; and `Cc1cc(N)c2ccccc2[n+]1CCCCCCCCCC[n+]1c(C)cc(N)c2ccccc21`, with -7.35%.
To `CCNC(=O)/C=C/c1cccc(Br)c1` belongs -3.03%; to `NC1CCN(c2nc3c(cc2F)c(=O)c(C(=O)O)cn3-c2ccc(F)cc2F)C1` (stereo not drawn), -4.74%; to `O=C(NC1CCN(CCc2c[nH]c3ccccc23)CC1)c1ccccc1`, 6.62%.
To `COc1cc(OC)nc(O[C@H](C(=O)O)C(OC)(c2ccccc2)c2ccccc2)n1` belongs -0.06%; to `N[C@@]1(C(=O)O)CS(=O)(=O)[C@H]2[C@H](C(=O)O)[C@H]21`, -3.92%.
Regarding `NCCCNCCSP(=O)(O)O`, the result_ITMP is -10.5%.
Then `O=C([O-])c1nc(=O)[nH]c(=O)[nH]1`, with -2.23%; and `Cc1ccc2c(=O)c3cccc(CC(=O)O)c3oc2c1C`, with -3.38%; and `CCCCc1ccc(O)cc1O`, with -3.79%.
To `c1ccc2nc(C3=NCCN3)ccc2c1` belongs -1.04%; to `Nc1sc2c(c1C(=O)c1ccc(Cl)cc1)CCCC2`, -6.93%.
Regarding `CN(C)CCn1cc(S(=O)(=O)c2cccc(F)c2)c2cccnc21`, the result_ITMP was -1.84%.
To `CN1CCN(c2ccc3ccccc3n2)CC1` belongs -1.59%; to `CC(C)(C)c1ccc(C(O)CCCN2CCC(C(O)(c3ccccc3)c3ccccc3)CC2)cc1` (stereo not drawn), -4.73%; to `O=[N+]([O-])c1ccc(O)c([N+](=O)[O-])c1`, -4.21%.
Then `Cc1oc2nc3c(c(NC(=O)CN4CCCC4=O)c2c1C)CCCC3`, with -2.52%; and `COc1cc(/C=C/c2ccc(OC)cc2OC)cc(OC)c1`, with -1.18%.
Then `CCCCN1CCCCC1C(=O)Nc1c(C)cccc1C` (stereo not drawn), with 12.6%; and `CO/N=C1\C[C@]2(C[C@@H]3C[C@@H](C/C=C(\C)C[C@@H](C)/C=C/C=C4\CO[C@@H]5[C@H](O)C(C)=C[C@@H](C(=O)O3)[C@]45O)O2)O[C@H](/C(C)=C/C(C)C)[C@H]1C`, with 7.86%; and `CCOC(=O)NNc1nncc2ccccc12`, with -1.79%.
As for `S=c1[nH]c2ccccc2s1`, the result_ITMP was -6.09%.
To `COc1cc(CC2NCCc3cc(O)c(O)cc32)cc(OC)c1OC` (stereo not drawn) belongs -7.76%; to `COc1cc(N2CCC(N3CCN(C)CC3)CC2)ccc1Nc1ncnc(Nc2ccccc2S(=O)(=O)C(C)C)n1`, 44.8%; to `CCN(CCO)CCCC(C)Nc1ccnc2cc(Cl)ccc12` (stereo not drawn), 1.54%.
Then `Cc1nc(Nc2ncc(C(=O)Nc3c(C)cccc3Cl)s2)cc(N2CCN(CCO)CC2)n1`, with 18%; and `C=C(C)C1CC=C(CO)CC1` (stereo not drawn), with -2.64%; and `CON`, with -3.8%.
Then `NC(=O)c1cn([C@@H]2O[C@H](CO)[C@@H](O)[C@H]2O)c2ncnc(N)c2c1=O`, with -2.7%; and `CCN1CCN(Cc2ccc(-c3cc4c(N[C@H](C)c5ccccc5)ncnc4[nH]3)cc2)CC1`, with 21.2%; and `CCOC(=O)c1c(CSc2ccccc2)n(C)c2cc(Br)c(O)c(CN(C)C)c12`, with 13.1%.
On to `CN1CCCCC1CCN1c2ccccc2Sc2ccc(S(C)=O)cc21` (stereo not drawn), for which the result_ITMP was -0.95%.
To `O=C(NC1CCN(Cc2ccccc2)CC1)c1ccc(I)cc1` belongs 1.54%; to `Cn1cc(-c2cc(Oc3cc(F)c(NC(=O)C4(C(=O)Nc5ccccc5)CC4)cc3F)ccn2)cn1`, -9.64%; to `O=C1C=CC(=O)C2=C1C1c3ccccc3C2c2ccccc21`, -1.69%.
To `Cc1cc(Nc2nc(N[C@@H](C)c3ccc(F)cc3)c(C#N)cc2F)n[nH]1` belongs 32.8%; to `N#Cc1ccncn1`, -3.1%; to `CC(/C=C/C(=O)NO)=C\[C@@H](C)C(=O)c1ccc(N(C)C)cc1`, -8.84%.
With `Clc1ccc(N2CCN(Cc3c[nH]c4ncccc34)CC2)cc1`, the result_ITMP is reported as 1.68%.
Then `Cc1nc(-c2ccc(OCC(C)C)c(C#N)c2)sc1C(=O)O`, with 4.49%.
Then `CCn1cnc2c(Nc3cccc(Cl)c3)nc(N[C@@H]3CCCC[C@@H]3N)nc21`, with 23.1%.
To `O=c1ccn([C@@H]2O[C@H](COP(=O)(O)OP(=O)(O)OP(=O)(O)O)[C@@H](O)[C@H]2O)c(=O)[nH]1` belongs -9.08%.
Turning to `C[C@@H](O)[C@H]1C(=O)N2C(C(=O)[O-])=C(SC3Cn4cnc[n+]4C3)[C@H](C)[C@H]12` (stereo partly drawn), the result_ITMP is -0.41%.
As to `CN(C)c1ccc(C(=C2C=CC(=[N+](C)C)C=C2)c2ccc(N(C)C)cc2)cc1`, the result_ITMP was -9.2%.
Take `O=C(OCC(COC(=O)c1cccnc1)(COC(=O)c1cccnc1)COC(=O)c1cccnc1)c1cccnc1`: the result_ITMP was -4.07%.
Then `CC(C(=O)O)c1ccc2c(c1)CC(=O)c1ccccc1S2` (stereo not drawn), with -6.91%.
To `Oc1cc2c(cc1O)[C@@H]1c3ccc(O)c(O)c3OC[C@]1(O)C2` belongs -3.36%.
For `CC(=O)N[C@H]1[C@@H](OC(C)C)O[C@H](COC(C)=O)[C@@H](OC(C)=O)[C@@H]1OC(C)=O`, the result_ITMP was -6.26%.
Then `CCOc1ccc(C[C@H]2NC(=O)CCSSC[C@@H](C(=O)N3CCC[C@H]3C(=O)N[C@@H](CCCN)C(=O)NCC(N)=O)NC(=O)[C@H](CC(N)=O)NC(=O)[C@H]([C@@H](C)O)NC(=O)[C@H]([C@@H](C)CC)NC2=O)cc1` ([Mpa][dY](Et)I[ξThr(3R)]NCP[Orn]G-NH2; disulfide 1-6), with -2.97%; and `Cc1nc(-c2cccnc2)sc1C(=O)Nc1ccccc1-c1cn2c(CN3CCOCC3)csc2n1`, with -7.93%.
Turning to `CC(=O)[C@]1(N)Cc2c(O)c3c(c(O)c2[C@@H](O[C@H]2C[C@H](O)[C@H](O)CO2)C1)C(=O)c1ccccc1C3=O`, the result_ITMP is recorded as -1.29%.
As to `CC(C)(CO)[C@@H](O)C(=O)NCCC(=O)[O-]`, the result_ITMP is reported as 1.43%.
To `O=c1ccc2ccccc2o1` belongs 1.2%; to `O=C(CCCN1CCC2(CC1)C(=O)N(Cc1cccc(F)c1)CN2c1ccccc1)c1ccc(F)cc1`, 89%; to `O=C(O)COc1ccc(/C=C2\SC(=O)NC2=O)cc1`, 4.17%.
To `NCCOB(c1ccccc1)c1ccccc1` belongs -1.28%; to `COc1ccccc1N1CCN(CCCCN2C(=O)CCC2=O)CC1`, 6.62%; to `CN[C@@H]1[C@H](O)[C@H](NC)[C@H]2O[C@@]3(O)C(=O)C[C@@H](C)O[C@H]3O[C@@H]2[C@H]1O`, -2.31%.
Then `CN(C)CCCN1c2ccccc2Sc2ccc(Cl)cc21`, with 104%; and `O=C([O-])c1cc(/N=N/c2ccc(O)c(C(=O)[O-])c2)ccc1O`, with -2.29%.
Turning to `CCN(CC)C(=O)c1ccc(C2=CC3(CCNCC3)Oc3cccc(O)c32)cc1`, the result_ITMP was -2.96%.
Consider `CCOc1ccc2[nH]c(SCCN3CCOCC3)nc2c1`, for which the result_ITMP is reported as 0.41%.
